# Test results: PubChem BioAssay AID485297 (National Center for Advancing Translational Sciences (NCATS), 2010)
# About 9,100 (2.8%) of roughly 320,000 compounds were called active. The shares of active, inactive and inconclusive entries below differ from those in the screen. The call rests on the fitted dose curve; in most records, active means well fitted activation curve with a large enough effect; inconclusive means small, poorly fitted or top-dose-only effect; inactive means no such curve, though single readings can be large or run the other way. No potency is given beside an inconclusive call; the fits are too rough.
# Experiment: qHTS Assay for Rab9 Promoter Activators; further: nearly all actives have a fitted effect of over 60% in size
# Details: Huh7 Rab9 promoter-luciferase reporter, luminescence, 24 h; series mostly up to 9.22 µM
# Outline: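 Promoter activation is measured as luciferase luminescence in Huh7 cells stably transfected with a Rab9 promoter–luciferase construct, following 24 h compound exposure at 37 °C and 10 min reagent incubation at ambient temperature.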
# Potency means the concentration at half of the fitted maximal effect; tags describe the fitted curve by direction and shape.
row,SMILES,Potency
1,CN(C)C(=O)CCc1nc(-c2ccc(C(C)(C)C)cc2)no1,active: 3.16 µM
2,CCn1cnc2c(Nc3cc(F)cc(F)c3)nc(C#N)nc21,inactive
3,Cc1ccccc1C(=O)Nc1ccc(Br)c(C)n1,"inconclusive [activator, single point]"
4,CCN(CC1CCCO1)C(=O)C1CCN(C2CCN(Cc3ccccc3C)CC2)CC1 (stereo not drawn),inactive
5,CCOC(=O)c1nn(-c2ccc(F)cc2)c(=O)cc1OCC(=O)N1CCN(c2ccccc2)CC1,inactive
6,CC(=O)NCCCOc1ccc([N+](=O)[O-])cc1Cl,"inconclusive [activator, single point]"
7,COCC(C)n1c(C)cc(C(=O)CSc2ncccn2)c1C (stereo not drawn),active: 3.98 µM
8,CN(C)c1cccc(C(=O)OCC(=O)c2ccc[nH]2)c1,active: 1.41 µM
9,COc1ccc(OCc2cc(C(=O)NC(C)Cc3cnccn3)no2)c(Cl)c1 (stereo not drawn),"inconclusive [activator, single point]"
10,N/C(=N\OC(=O)c1ccccc1Cl)c1cccnc1,"inconclusive [activator, partial curve]"
11,S=c1[nH]nc(-c2n[nH]c3c2CCC3)n1/N=C/C=C/c1ccccc1,inactive
12,Oc1ccc(N=Nc2ccc(Br)cc2)c(O)c1,"inconclusive [activator, partial curve]"
13,O=C(CSc1nnc(-c2cccc(F)c2)o1)N1CCOCC1,"inconclusive [activator, partial curve]"
14,O=C(CC1CCCCC1)NCc1ccccc1Cl,"inconclusive [activator, single point]"
15,C/C(=N/N=C(/C)c1cccs1)c1cccs1,"inconclusive [activator, partial curve, poor fit]"
16,COc1ccc(C(=O)NCCn2ccc3ccccc32)c(OC)c1,"inconclusive [activator, partial curve]"
17,CC(C)CC(=O)Nc1ccc2oc(-c3cccnc3)nc2c1,"inconclusive [activator, partial curve]"
18,Cn1nc(C(F)(F)F)cc1-c1ccc(S(N)(=O)=O)s1,"inconclusive [activator, partial curve]"
19,COc1ccc(CN(C(=O)c2cc(=O)c3ccccc3o2)C2CCS(=O)(=O)C2)cc1 (stereo not drawn),inactive
20,NS(=O)(=O)c1cccc(NS(=O)(=O)c2ccc(/C=C/C(=O)OCC(=O)c3ccccc3)cc2)c1,"inconclusive [activator, single point]"
21,Cc1ccc(S(=O)(=O)N(CC(=O)Nc2cccnc2)c2cccc(Br)c2)cc1,inactive
22,Cc1c(/C=C/C(=O)c2ccc(Cl)s2)cnn1C,"inconclusive [activator, single point]"
23,CCc1ccc(OCC(=O)Oc2ccc([N+](=O)[O-])cc2)cc1,inactive
24,N#C/C(=C\c1ccc[nH]1)C(=O)Nc1ccccc1Cl,"inconclusive [activator, partial curve]"

row,SMILES,Potency
1,Cc1c(-c2ccccc2)nnn1-c1ccc(F)cc1F,"inconclusive [activator, partial curve]"
2,COCCNc1nc(N2CCCCC2)c2cnn(C)c2n1,inactive
3,Cc1nn(-c2ccccc2)c(C)c1C(=O)OCC(=O)N(C)C1CCS(=O)(=O)C1 (stereo not drawn),"inconclusive [activator, partial curve]"
4,CCCCN(C(=O)C1CCN(C(=O)c2ccccc2C)CC1)c1c(N)n(CCCC)c(=O)[nH]c1=O,inactive
5,Cc1nn(-c2ccccc2)c(C)c1/C=C1\C(=O)N(C)C(=S)N1C,inactive
6,Cc1cc(C(=O)Nc2ccccn2)no1,"inconclusive [activator, single point]"
7,CCN(CC)c1ccc(/C=N/Nc2nc3ccccc3[nH]2)cc1,"inconclusive [activator, single point]"
8,CCNC(=O)NC(=O)CSc1ccccc1F,inactive
9,CCOC(=O)c1sc(NC(=O)/C=C/c2ccccc2)nc1C,"inconclusive [activator, single point]"
10,COc1ccc2nc3sc(C(=O)NCc4cccs4)c(N)c3cc2c1,active: 3.98 µM
11,CC(C)COc1ccc(C(=O)Nc2ccccc2[N+](=O)[O-])cc1,"inconclusive [activator, single point]"
12,CCc1sc(C(=O)Nc2cccc(C(C)=O)c2)cc1C,"inconclusive [activator, single point]"
13,Cc1ccc(-c2cc(-c3ccccc3Cl)[nH]n2)c(O)c1,"inconclusive [activator, single point]"
14,COc1ccc(C(=O)N2CCc3ccccc32)cc1,"inconclusive [activator, single point]"
15,CCC(C(=O)Nc1ccc2c(c1)OCCO2)n1nnc2ccccc2c1=O (stereo not drawn),"inconclusive [activator, partial curve]"
16,COc1ccc(-n2c(C)c(C)c3c(NCCCO)ncnc32)cc1,"inconclusive [activator, partial curve]"
17,CCOC(=O)c1c(NC2=NS(=O)(=O)c3ccccc32)sc2c1CCCCC2,"inconclusive [activator, partial curve]"
18,CCCc1cc(=O)n2[nH]c(-c3ccc(C)cc3)cc2n1,active: 3.98 µM
19,COC(=O)CCCSc1nccn1-c1ccccc1,"inconclusive [activator, single point]"
20,Cn1c2c(c(=O)n(C)c1=O)C(c1ccc(Br)cc1)C(C#N)=C(N)N2 (stereo not drawn),"inconclusive [activator, single point]"
21,Cc1cccc2sc(NC(=O)CSc3cn[nH]n3)nc12,inactive
22,COc1ccc(-c2nnc(SCC(=O)N3CCCC3)o2)c(OC)c1,"inconclusive [activator, partial curve]"
23,O=C(NCCNc1ccccc1[N+](=O)[O-])c1cc(F)c(F)cc1Cl,"inconclusive [activator, partial curve]"
24,COc1ccc(Nc2nc(Nc3ccc(OC)cc3)nc(-n3[nH]c(=O)c(C)c3C)n2)cc1,inactive
